# In paper PMC12040169 (PLOS Biology, 2025):
# This is one part of the list.
# Test system: T1, C. trachomatis L2/434/Bu expressing GFP (CTL2-GFP)
# T1 construct: L2/434/Bu GFP intracellular growth in HeLa cells
# Parameters: species or system HeLa; C. trachomatis total inclusion area by high-content imaging, normalised to DMSO
# Details: total inclusion area; 28.5 h, 10 µM; inhibitor
# Summary of the method: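 High-content imaging followed the bulk GFP/resorufin measurement: fixed, Hoechst-stained cells were scored for GFP inclusions and host nuclei per well. Total inclusion area and count served as growth proxies, nuclei number as the viability proxy. MIC calculation matched the bulk assay.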
row,SMILES,% of control remaining
1,OCc1ccc(-c2nccnc2N2CCCC2CO)cc1 (stereo not shown) [CBK089053],75.6732
2,Cc1ccc2ccc(S(=O)(=O)NCc3cccnc3)cc2c1 [CBK262072],89.5065
3,c1csc(-c2nccnc2NCCc2ccncc2)c1 [CBK036764],100.493
4,c1ccc(CCN2CCC(Oc3cncc(OCC4COc5ccccc5O4)n3)C2)cc1 (stereo not shown) [CBK084382],80.9309
5,CSc1ccc(CN(C)CCN(C)C)cc1 [CBK019349],71.0995
6,O=C(O)CCNC(=O)c1ccc(C#CC2(O)CCCCC2)cc1 [CBK286554],73.2951
7,Cc1ccc(CNC(=O)C2CC(=O)N(c3cccc(C)c3C)C2)cc1 (stereo not shown) [CBK295183],63.2825
8,O=C(O)c1ccc(Cl)c2c1C1C=CCC1C(c1ccc(S(=O)(=O)N3CCOCC3)cc1)N2 (stereo not shown) [CBK268401],108.947
9,NC(=O)c1ccccc1OCCO [CBK000640],98.1664
10,CCOC(=O)c1c(-c2ccc(OC)cc2)noc1C(O)c1ccccc1 (stereo not shown) [CBK002296],132.915
11,CC(C)c1ccccc1NC(=O)NCCc1cccs1 [CBK043938],99.4337
12,C[C@H]1CN2C[C@H](O)CC2CN1Cc1cccc2ccccc12 (stereo partly shown) [CBK284717],101.851
13,COc1cc(NC(=O)CC2NC3CCCCC3NC2=O)cc(OC)c1 (stereo not shown) [CBK266597],96.6456
14,O=C(NCCCn1ccnc1)c1cccc(S(=O)(=O)N2CCCCC2)c1 [CBK304687],79.9921
15,COc1cccc2cc(C(=O)NC3CC3)oc12 [CBK149813],104.217
16,CC1(C)CN=C(N2CCN(C3=NCC(C)(C)S3)CC2)S1 [CBK020461],83.5661
17,O=C(O)CCCC(=O)Nc1ccc(O)cc1 [CBK263567],119.409
18,CS(=O)(=O)NC1c2cccc3cccc(c23)C1N1CCOCC1 (stereo not shown) [CBK265845],130.731
19,O=C(O)c1cc(C(=O)O)cc(N2C(=O)c3ccc(S(=O)(=O)c4ccc5c(c4)C(=O)N(c4cc(C(=O)O)cc(C(=O)O)c4)C5=O)cc3C2=O)c1 [CBK261336],108.188
20,O=S(=O)(Nc1ccc2c(ccn2Cc2ccccc2)c1)c1ccc(S(=O)(=O)c2ccccc2)s1 [CBK159533],83.6314
21,Cc1cc(NC(=O)c2cc([N+](=O)[O-])ccc2Cl)nc2c1c(=O)oc1ccccc12 [CBK291258],84.3713
22,Cc1csc2c(C3CCCN(C(=O)c4ccncc4)C3)nc(C)n12 (stereo not shown) [CBK285213],84.5058
23,c1ccc(Oc2ccccc2-c2cc(N3CCC(N4CCCCC4)CC3)ncn2)cc1 [CBK037728],108.603
24,Cc1cc(-c2ccccc2)sc1C(=O)/C=C(\O)C(=O)O [CBK263198],108.266
25,O=[N+]([O-])c1ccccc1S(=O)(=O)N1CCN(Cc2cccc(Oc3ccccc3)c2)CC1 [CBK264283],109.516
26,O=S(=O)(Nc1ccccn1)N1CCCCC1 [CBK269490],115.518
27,CSc1ccc(CN(C)c2cncc(-n3cccn3)n2)cc1 [CBK298326],89.3134

row,SMILES,% of control remaining
1,CSCCN1CCCN(c2nccc(OCC3COc4ccccc4O3)n2)CC1 (stereo not shown) [CBK083978],70.6682
2,COc1ccc(OCC(=O)Nc2ccccc2N2CCN(S(C)(=O)=O)CC2)cc1 [CBK269177],116.525
3,O=C1c2ccccc2C(=O)N1CCc1nc2ccccc2c(=O)n1-c1nc2ccccc2s1 [CBK266358],130.457
4,CCCCc1ccc(-c2ccc(-c3cc(C(=O)O)c4cc(C)ccc4n3)o2)cc1 [CBK300528],31.1693
5,CN1CCN(c2ncc(-c3ccc(N4CCOCC4)cc3)n3ccnc23)CC1 [CBK091226],85.395
6,Cc1cnc(NC(=O)Cc2ccc(F)cc2)s1 [CBK288249],81.9954
7,COC(=O)c1ccc(NC(=O)N(Cc2cnn(C)c2)CC(C)C)cc1Cl [CBK304387],104.221
8,NC(=O)NC(CC(=O)N1CCOC2CCCCC21)c1cccc(Br)c1 (stereo not shown) [CBK306299],81.5621
9,C=CCNC(=O)[C@@H]1C=CCN1S(=O)(=O)c1ccc(Cl)cc1 [CBK284318],88.7565
10,Cc1[nH]c(=O)[nH]c(=O)c1S(=O)(=O)Nc1ccc(S(N)(=O)=O)cc1 [CBK262123],69.6143
11,COc1ccc(CCNC(=O)N2CCN(c3cc(C(F)(F)F)ccn3)CC2)cc1OC [CBK162330],52.3068
12,COc1ccc(CN2C(=O)CC(c3ccccc3)C2=O)cc1 (stereo not shown) [CBK002055],113.956
13,Cc1ccc2c(c1)c(-c1ccccc1)c(-c1ccccc1)n2CC(O)Cn1cnc(-c2ccccc2)c1-c1ccccc1 (stereo not shown) [CBK262531],128.535
14,O=S(=O)(c1ccc(C(F)(F)F)cc1Cl)N1CCCN(Cc2ccc(F)cc2F)CC1 [CBK062946],102.822
15,O=C(NCO)c1ccccc1O [CBK012717],67.8321
16,CC12CCC(C(=O)O)(C/C1=N\N)C2(C)C (stereo not shown) [CBK265268],117.102
17,Cc1ccc(CCCC(=O)N2CCc3c([nH]c4c(C)cccc34)C23CCN(Cc2ccc(F)cc2)C3)cc1 (stereo not shown) [CBK066979],59.9269
18,Cc1ccc(C(=O)N2CCC(Cc3ccccc3)CC2)cn1 [CBK200179],86.3411
19,CCN1CCN(Cc2c(O)ccc3c(=O)c(-c4ccccc4OC)c(C(F)(F)F)oc23)CC1 [CBK263692],105.454
20,O=S(=O)(Nc1cc(-c2ccco2)n[nH]1)c1ccc(Br)cc1C(F)(F)F [CBK067286],90.904
21,CCc1nn(CC(=O)OC(C)C)c(=O)c2cc3sccc3n12 [CBK284076],96.0242
22,OCc1cccc(-c2cncc(NC3CCC(O)CC3)n2)c1 (stereo not shown) [CBK065448],76.5167
23,COc1ccc2[nH]c(C(=O)O)c(CCC(=O)O)c2c1 [CBK266582],111.051
24,N#Cc1ccc(Cn2cc(C(=O)C(N)=O)c3ccccc32)cc1 [CBK270062],85.2281
25,Nc1nc(-c2ccc(F)cc2)c2c(n1)-c1ccccc1C2=O [CBK287881],75.5691
26,CCn1c(=N)n(CC(=O)O)c2ccccc21 [CBK262906B],96.1183
27,COc1cc(C(=O)N2CCCC3(CCN(C(=O)Cc4c[nH]c5ccccc45)C3)C2)cc(OC)c1OC (stereo not shown) [CBK131601],103.279

row,SMILES,% of control remaining
1,COc1ncc(-c2cncc(N3CCCN(C)CC3)n2)c(OC)n1 [CBK065286],68.2184
2,FC(F)(F)c1ccc(OC2CCNCC2)nc1 [CBK113287],105.496
3,Cc1ccc(C(=O)CN2CCC3(CC2)NCCc2c3[nH]c3ccc(F)cc23)cc1 [CBK039503],83.1125
4,CC(C)[C@@H](CO)n1c(=O)[nH]c2ncc(-c3cccc(/C=C/C(=O)O)c3)nc21 [CBK065043],106.865
5,CC(C)(Cc1ccccc1)NCC(O)COc1ccc2c(c1)C1CCC2C1 (stereo not shown) [CBK018228C],1.286
6,CN1CC[C@@H]2[C@H]1C(=O)NC[C@H](CCC(=O)NCc1cccs1)N2C [CBK289028],76.2094
7,COCCc1nc(C2CCN(C)CC2)n(Cc2ccccc2C)n1 [CBK307449],88.8444
8,COc1cc(/C=N/c2cccc3c(/N=C/c4ccc(O)c(OC)c4)cccc23)ccc1O [CBK261224],0.8577
9,CC(C)(CO)CNc1cncc(-c2ccccc2CO)n1 [CBK066088],124.602
10,CCN(CC)S(=O)(=O)c1cccc(-n2sc3ccccc3c2=O)c1 [CBK116501],85.1592
11,COc1ccc(Cc2c(C)nc3c(C(=O)NCC4CCCO4)cnn3c2C)cc1 (stereo not shown) [CBK162183],80.3564
12,CCOC(=O)CSc1nc(=O)cc(N)n1Cc1ccc(F)cc1 [CBK269938],81.5349
13,CC(C)[C@H](CO)n1c(=O)[nH]c2ncc(-c3ccco3)nc21 [CBK064479],106.558
14,Cc1c(C(=O)N(C)Cc2cc3ccccc3o2)nnn1C1CCNCC1 [CBK304307C],69.742
15,CSc1ccc(-n2ncc(-c3cccc(C(F)(F)F)c3)n2)cc1 [CBK112666],74.1905
16,Cc1ccc(-n2ncc3c2NC(=O)N2CCN=C32)cc1 [CBK284345],83.9877
17,CC(C)n1c(=O)n(CC(=O)NCc2ccccc2)c2cccnc21 [CBK283758],86.2857
18,O=C(O)c1ccc2[nH]cc(CN3CCOCC3)c2c1 [CBK287081],108.395
19,CC(C)(C)c1cc(CCC(=O)N2CCN(C(=O)CCc3cc(C(C)(C)C)c(O)c(C(C)(C)C)c3)CC2)cc(C(C)(C)C)c1O [CBK261963],73.757
20,c1ccc2c(OCc3nc4c5c6c(sc5ncn4n3)CCCCC6)cccc2c1 [CBK264151],107.793
21,Nc1cccc(-c2cncc(NCC3CCOCC3)n2)c1 [CBK037221],149.977
22,COCCn1c(SCCC(=O)O)nc2c1c(=O)[nH]c(=O)n2C [CBK139751],77.9706
23,Sc1nnc(COc2ccccc2)n1/N=C/c1ccc(-c2ccccc2)cc1 [CBK265269],96.511
24,O=c1c2ccccc2nc(S)n1CC(O)c1ccccc1 (stereo not shown) [CBK288386],40.6774
25,CC1=C(c2ccc(OC(C)(C)CN3CCCC3)cc2)C(C)CCC1 (stereo not shown) [CBK012357C],53.4579
